About 230 (0.21%) of roughly 110,000 compounds showed an effect of 50% or more. The list shows a part of the results.
biological target: DPAP1 (Plasmodium falciparum, UniProt Q8IIJ9); assay: primary screen, percent inhibition; read by cleavage of a fluorogenic dipeptide substrate; higher = more effect of the substance; parameters: species or system P. falciparum D10 trophozoite lysates; single well
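Further: 30 min substrate incubation versus DMSO and 10 µM JCP410 controls.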

Sequence of DPAP1 (Q8IIJ9 whole entry, looked up): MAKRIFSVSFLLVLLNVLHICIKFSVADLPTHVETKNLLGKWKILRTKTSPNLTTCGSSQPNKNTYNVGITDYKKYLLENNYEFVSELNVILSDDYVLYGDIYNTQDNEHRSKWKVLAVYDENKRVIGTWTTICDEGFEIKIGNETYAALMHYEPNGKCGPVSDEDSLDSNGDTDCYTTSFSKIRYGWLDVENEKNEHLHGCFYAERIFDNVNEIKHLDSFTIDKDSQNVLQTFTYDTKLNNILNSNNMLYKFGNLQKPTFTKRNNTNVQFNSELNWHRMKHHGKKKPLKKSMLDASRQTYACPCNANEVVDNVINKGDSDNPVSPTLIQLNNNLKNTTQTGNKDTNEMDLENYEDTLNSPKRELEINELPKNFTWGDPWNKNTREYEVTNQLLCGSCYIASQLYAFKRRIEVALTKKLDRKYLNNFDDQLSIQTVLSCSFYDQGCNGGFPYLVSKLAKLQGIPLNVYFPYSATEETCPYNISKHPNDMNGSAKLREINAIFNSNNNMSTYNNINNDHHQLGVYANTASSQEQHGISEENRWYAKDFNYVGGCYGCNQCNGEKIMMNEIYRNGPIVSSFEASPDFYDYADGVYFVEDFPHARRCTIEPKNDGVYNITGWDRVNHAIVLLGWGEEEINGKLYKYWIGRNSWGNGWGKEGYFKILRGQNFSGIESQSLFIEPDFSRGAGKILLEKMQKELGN

Row | Structure (SMILES) | % Inhibition @ 10 uM
1 | CN(C)C(=O)CS(=O)(=O)c1ccc2ccccc2c1 | -0.105%
2 | Cc1cccc(-n2c(S)nnc2CN2CCSCC2)c1 | 5.16%
3 | O=C(COc1ccc(S(=O)(=O)N2CCCC2)cc1)N1CCN(c2ccccc2F)CC1 | 0.361%
4 | O=S(=O)(c1ccc(Cl)cc1)N1CCC(Cc2ccccc2)CC1 | -3.44%
5 | CC(CCc1ccccc1)Nc1cnn(C23CC4CC(CC(C4)C2)C3)c(=O)c1Cl (centres unmarked) | -2.27%
6 | Oc1nc2ccccc2n1Cc1ccccc1Cl | -5.92%
7 | CC(NS(=O)(=O)c1ccc(OCC(=O)Nc2ccccc2F)cc1)c1ccccc1 (centres unmarked) | -1.36%
8 | CCOc1ccc2nc(NC(=O)c3ccc(C)o3)sc2c1 | -1.42%
9 | COc1ccc(C2(CNC(=O)C(=O)NCCO)CCCC2)cc1OC | 0.00706%
10 | Cc1ccc(-c2[nH]nc3c2C(c2cccc(O)c2)C(C#N)=C(N)O3)cc1 (centres unmarked) | 2.26%
11 | NS(=O)(=O)c1ccc(CNC(=O)c2cc(-c3ccc(Cl)s3)nc3ccccc23)cc1 | -4.67%
12 | CNC1=NC(=O)CC(C(=O)Nc2ccc3ccccc3c2)S1 (centres unmarked) | -0.864%
13 | O=C(c1ccc2nc(N3CCOCC3)sc2c1)N1CCN(c2ncccn2)CC1 | 4.22%
14 | O=C(C1CCCO1)N1CCN(c2ccccc2)CC1 (centres unmarked) | 2.27%
15 | COc1ccccc1C(=O)Nc1nc2nccc(C)n2n1 | 3.66%
16 | COc1ccc(OCc2nnc(-c3ccccc3Cl)o2)cc1 | -2.99%
17 | CCOC(=O)c1c(C)c(C(=O)NCCCOC)c(C)n1CC | 3.32%
18 | COc1cc2nc(SCC(=O)Nc3cc(C)[nH]n3)n3nc(-c4ccccc4)nc3c2cc1OC | 1.23%
19 | CCN(CC)CCNC1CCN(C)CC1 | -0.0908%
20 | CCN(CC)CCNC(=O)c1ccc(CS(=O)(=O)Cc2cccc(Cl)c2)o1 | -4.53%
21 | CC(=O)N1CCc2cc3nc(C)cc(C)c3cc21 | -4.52%
22 | O=C(CCn1ccc2cc(S(=O)(=O)N3CCCCC3)ccc21)N1CCN(C(=O)c2ccco2)CC1 | 4.16%
23 | c1ccc(-c2nnnn2-c2ccncc2)cc1 | -4.21%
24 | Cc1cc(C)cc(Oc2coc3cc(OCC(=O)NCc4ccccc4)ccc3c2=O)c1 | 9.49%
25 | CC1=NNC(=O)C1c1c[nH]c2ccccc12 (centres unmarked) | -2.36%

Row | Structure (SMILES) | % Inhibition @ 10 uM
26 | O=C(CN1C(=O)c2ccccc2S1(=O)=O)NCc1ccc(Cl)cc1 | 2%
27 | CCC(=O)c1c(C)cc(C)nc1N1CCOCC1 | 5.66%
28 | c1ccc(CNC2CCCc3c2[nH]c2ccc(-c4ccccc4)cc32)cc1 (centres unmarked) | -2.55%
29 | COc1ccc(S(=O)(=O)Nc2cccc(-c3csc(C)n3)c2)cc1OC | -9.29%
30 | Cc1ccc(-n2nc(C)c(/C=N/c3ccc(S(=O)(=O)N(C)C)cc3)c2O)c(C)c1 | -0.864%
31 | c1ccc(CNc2ncnc3ncn(Cc4ccccc4)c23)cc1 | -0.216%
32 | O=C(O)C1C2CCC(O2)C1C(=O)NC1CCCCC1 (centres unmarked) | 0.205%
33 | CCOc1ccc(Nc2oc(-c3cccs3)nc2C#N)cc1 | -7.96%
34 | COc1cccc2c1nc(C)c1cc(C)oc12 | 0.51%
35 | O=C(Nc1ccc(Nc2ccccc2)cc1)c1ccc(F)cc1 | -3.71%
36 | COc1ccc(OC)c(NC(=O)CCC2CCCC2)c1 | -0.28%
37 | CC(C)N(Cc1nc(-c2ccc(Cl)cc2)no1)C(=O)c1ccc2c(c1)OCO2 | -2.45%
38 | CCCS(=O)(=O)N1CCN(Cc2noc(CCC(=O)N3CCCC3)n2)CC1 | 0.713%
39 | COc1ccc(S(=O)(=O)N(CC(=O)N2CCN(c3ccc(F)cc3)CC2)Cc2ccccc2)cc1 | 5.03%
40 | O=C1NC(=O)C(=Cc2cccc(Br)c2)C(=O)N1 | -5.11%
41 | COc1cc(CNC(C)(C)CO)ccc1OCc1ccccc1Cl | 7.35%
42 | O=C(CN(c1ccccc1F)S(=O)(=O)c1ccccc1)NC1CCCCC1 | -3.25%
43 | O=C(/C=C/c1cccc([N+](=O)[O-])c1)Nc1cccc(O)c1 | 6.49%
44 | COc1cc(/C=c2\sc3nc(-c4ccc(Cl)cc4)nn3c2=O)cc(OC)c1OC | 3.54%
45 | O=C(CCCC(=O)Nc1ccc(Cl)cc1)Nc1ccc(Cl)cc1 | -2.56%
46 | Cc1cc(Br)c(-n2nc(C)c3c(C)cc(=O)oc32)cc1C | -5%
47 | CC1CC(C)CN(CCCNC(=O)c2cc3c(s2)-c2ccccc2OC3)C1 (centres unmarked) | -3.08%
48 | CCOC(=O)/C(C#N)=C/c1ccc(OC)c(Br)c1 | 2.13%
49 | Cc1cc(C)c(C#N)c(SCC(=O)Nc2ccccc2C(N)=O)n1 | -2.24%
50 | CCOc1ccc2nc(N3CCC(C(=O)NC4CCCc5ccccc54)CC3)sc2c1 (centres unmarked) | -0.0745%
